Measured values reported in the supplement of paper PMC8728848.
This is one part of the list.

How the values were obtained:
Assay in all cases: glycan array binding signal (z-score within array); higher = stronger binding
Conditions in all cases: glycan notation: IUPAC condensed, linker removed
[1] = target: GlcNAc(b1-3)Gal(b1-4)GlcNAc(b1-3)Gal(b1-4)GlcNAc(b1-3)GalNAc
Outline: (§1)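 Negative Z-scores can be read as non-binding. The Z-score is calculated within each array and then averaged across arrays of one protein sequence at different concentrations or buffers and across linkers. Arrays, 3228 in all, were curated from the Consortium for Functional Glycomics database and kept only where the protein sequence was available.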

[2] = target: GlcNAc(b1-3)Gal(b1-4)GlcNAc(b1-3)GalNAc
Outline: as §1

[3] = target: GlcNAc(b1-3)Gal(b1-4)GlcNAc(b1-3)[GlcNAc(b1-3)Gal(b1-4)GlcNAc(b1-3)]GalNAc
Outline: as §1

[4] = target: GlcNAc(b1-3)Gal(b1-4)GlcNAc(b1-6)[Gal(b1-3)]GalNAc
Outline: as §1

[5] = target: GlcNAc(b1-3)Gal(b1-4)GlcNAc(b1-6)[GlcNAc(b1-3)Gal(b1-3)]GalNAc
Outline: as §1

[6] = target: GlcNAc(b1-3)Gal(b1-4)GlcNAc(b1-6)[GlcNAc(b1-3)]Gal(b1-4)GlcNAc
Outline: as §1

GlcNAc(b1-3)GalNAc = target: GlcNAc(b1-3)GalNAc
Outline: as §1

GlcNAc(b1-3)Man = target: GlcNAc(b1-3)Man
Outline: as §1

[7] = target: GlcNAc(b1-3)[GlcNAc(b1-4)][GlcNAc(b1-6)]GlcNAc
Outline: as §1

[8] = target: GlcNAc(b1-3)[GlcNAc(b1-6)]Gal(b1-4)GlcNAc
Outline: as §1

[9] = target: GlcNAc(b1-3)[GlcNAc(b1-6)]GalNAc
Outline: as §1

[10] = target: GlcNAc(b1-4)Gal(b1-4)GlcNAc
Outline: as §1

GlcNAc(b1-4)GlcNAc = target: GlcNAc(b1-4)GlcNAc
Outline: as §1

[11] = target: GlcNAc(b1-4)GlcNAc(b1-4)GlcNAc
Outline: as §1

[12] = target: GlcNAc(b1-4)GlcNAc(b1-4)GlcNAc(b1-4)GlcNAc(b1-4)GlcNAc
Outline: as §1

[13] = target: GlcNAc(b1-4)GlcNAc(b1-4)GlcNAc(b1-4)GlcNAc(b1-4)GlcNAc(b1-4)GlcNAc
Outline: as §1

[14] = target: GlcNAc(b1-4)[GlcNAc(b1-6)]GalNAc
Outline: as §1

[15] = target: GlcNAc(b1-6)Gal(b1-4)GlcNAc
Outline: as §1

GlcNAc(b1-6)GalNAc = target: GlcNAc(b1-6)GalNAc
Outline: as §1

[16] = target: GlcNAc6S(b1-3)Gal(b1-4)GlcNAc
Outline: as §1

Kdn(a2-3)Gal(b1-3)GalNAc = target: Kdn(a2-3)Gal(b1-3)GalNAc
Outline: as §1

Kdn(a2-3)Gal(b1-3)GlcNAc = target: Kdn(a2-3)Gal(b1-3)GlcNAc
Outline: as §1

Kdn(a2-3)Gal(b1-4)Glc = target: Kdn(a2-3)Gal(b1-4)Glc
Outline: as §1

Kdn(a2-3)Gal(b1-4)GlcNAc = target: Kdn(a2-3)Gal(b1-4)GlcNAc
Outline: as §1

[17] = target: Kdn(a2-3)Gal(b1-4)[Fuc(a1-3)]GlcNAc
Outline: as §1

Kdn(a2-6)Gal(b1-4)GlcNAc = target: Kdn(a2-6)Gal(b1-4)GlcNAc
Outline: as §1

[18] = target: Man(a1-2)Man(a1-2)Man(a1-3)Man
Outline: as §1

[19] = target: Man(a1-2)Man(a1-2)Man(a1-6)[Man(a1-3)]Man
Outline: as §1

Man(a1-2)Man(a1-3)Man = target: Man(a1-2)Man(a1-3)Man
Outline: as §1

[20] = target: Man(a1-2)Man(a1-3)[Man(a1-2)Man(a1-6)]Man
Outline: as §1

[21] = target: Man(a1-2)Man(a1-3)[Man(a1-2)Man(a1-6)]Man(a1-6)[Man(a1-2)Man(a1-2)Man(a1-3)]Man
Outline: as §1

[22] = target: Man(a1-2)Man(a1-3)[Man(a1-2)Man(a1-6)]Man(a1-6)[Man(a1-2)Man(a1-2)Man(a1-3)]Man(b1-4)GlcNAc(b1-4)GlcNAc
Outline: as §1

[23] = target: Man(a1-2)Man(a1-3)[Man(a1-6)]Man(a1-6)[Man(a1-2)Man(a1-3)]Man(b1-4)GlcNAc(b1-4)GlcNAc
Outline: as §1

[24] = target: Man(a1-2)Man(a1-6)[Man(a1-3)]Man(a1-6)[Man(a1-2)Man(a1-2)Man(a1-3)]Man
Outline: as §1

[25] = target: Man(a1-2)Man(a1-6)[Man(a1-3)]Man(a1-6)[Man(a1-2)Man(a1-2)Man(a1-3)]Man(b1-4)GlcNAc(b1-4)GlcNAc
Outline: as §1

Man(a1-3)[Man(a1-6)]Man = target: Man(a1-3)[Man(a1-6)]Man
Outline: as §1

[26] = target: Man(a1-3)[Man(a1-6)]Man(a1-6)[Man(a1-2)Man(a1-3)]Man(b1-4)GlcNAc(b1-4)GlcNAc
Outline: as §1

[27] = target: Man(a1-3)[Man(a1-6)]Man(a1-6)[Man(a1-3)]Man
Outline: as §1

[28] = target: Man(a1-3)[Man(a1-6)]Man(a1-6)[Man(a1-3)]Man(b1-4)GlcNAc(b1-4)GlcNAc
Outline: as §1

[29] = target: Man(a1-3)[Man(a1-6)]Man(b1-4)GlcNAc(b1-4)GlcNAc
Outline: as §1

[30] = target: Man(a1-3)[Man(a1-6)]Man(b1-4)GlcNAc(b1-4)[Fuc(a1-6)]GlcNAc
Outline: as §1

Man(a1-6)Man = target: Man(a1-6)Man
Outline: as §1

Man(b1-4)GlcNAc = target: Man(b1-4)GlcNAc
Outline: as §1

MurNAc(b1-4)GlcNAc = target: MurNAc(b1-4)GlcNAc
Outline: as §1

Neu5Ac(a2-3)Gal = target: Neu5Ac(a2-3)Gal
Outline: as §1

[31] = target: Neu5Ac(a2-3)Gal(b1-3)GalNAc
Outline: as §1

[32] = target: Neu5Ac(a2-3)Gal(b1-3)GalNAc(b1-3)Gal(a1-4)Gal(b1-4)Glc
Outline: as §1

[33] = target: Neu5Ac(a2-3)Gal(b1-3)GalNAc(b1-4)Gal(b1-4)Glc
Outline: as §1

[34] = target: Neu5Ac(a2-3)Gal(b1-3)GalNAc(b1-4)[Neu5Ac(a2-3)]Gal(b1-4)Glc
Outline: as §1

[35] = target: Neu5Ac(a2-3)Gal(b1-3)GalNAc(b1-4)[Neu5Ac(a2-8)Neu5Ac(a2-3)]Gal(b1-4)Glc
Outline: as §1

[36] = target: Neu5Ac(a2-3)Gal(b1-3)GalNAc6S
Outline: as §1

[37] = target: Neu5Ac(a2-3)Gal(b1-3)GlcNAc
Outline: as §1

[38] = target: Neu5Ac(a2-3)Gal(b1-3)GlcNAc(b1-2)Man
Outline: as §1

[39] = target: Neu5Ac(a2-3)Gal(b1-3)GlcNAc(b1-2)Man(a1-3)[GlcNAc(b1-4)][Neu5Ac(a2-3)Gal(b1-3)GlcNAc(b1-2)Man(a1-6)]Man(b1-4)GlcNAc(b1-4)GlcNAc
Outline: as §1

[40] = target: Neu5Ac(a2-3)Gal(b1-3)GlcNAc(b1-2)Man(a1-3)[Neu5Ac(a2-3)Gal(b1-3)GlcNAc(b1-2)Man(a1-6)]Man(b1-4)GlcNAc(b1-4)GlcNAc
Outline: as §1

[41] = target: Neu5Ac(a2-3)Gal(b1-3)GlcNAc(b1-2)[Neu5Ac(a2-3)Gal(b1-3)GlcNAc(b1-4)]Man(a1-6)[Neu5Ac(a2-3)Gal(b1-3)GlcNAc(b1-2)Man(a1-3)]Man(b1-4)GlcNAc(b1-4)GlcNAc
Outline: as §1

[42] = target: Neu5Ac(a2-3)Gal(b1-3)GlcNAc(b1-3)Gal(b1-3)GlcNAc
Outline: as §1

[43] = target: Neu5Ac(a2-3)Gal(b1-3)GlcNAc(b1-3)Gal(b1-4)GlcNAc
Outline: as §1

[44] = target: Neu5Ac(a2-3)Gal(b1-3)GlcNAc(b1-3)GalNAc
Outline: as §1

[45] = target: Neu5Ac(a2-3)Gal(b1-3)GlcNAc(b1-6)GalNAc
Outline: as §1

B1: BT3172pd (Bacteroides thetaiotaomicron) (protein)
chain: MLPLRAEHYYYKQISLKEGLPSNVRCILRDEQGFIWIGTKAGLGKFDGHQLKRYKHQANDPHSLLHNLIYQIAEDKQHNIWILTEKGIARYQQQSNNFTFPTDEEGNYITAYSFCLVPDGILFGGKDRIYKYSYKDSSLRLLQYFNANSFKITALSVWDSKTLLCCSRWTGLYLVDLQTGEHRRPPFDCGPEITSMITDSKNRIWIAPYSGGLRCYSRDGKLSASYTTHNSSLSNDIVLSLAEREEQLWIGTDGGGINILHPETGEISQLEYIPGRENYSLPANSILCLHNDYNNNVWAGSTCNGLISIREVSMKTYTDVVPGNDRGLSNGTVRSLYRQSPDSIWIGTDGGGINLFSPHTEKFTHYSSTWGDKVAFISGFTPGKLLISLFSKGVFVFNPATGEKQPFTIIDKETTTRLCNRGKSVNLYQNTPNTVLFLGDHIYQYHLKEKKFSTITEEEGKDIVGTLVPFDHQENLTYINDIKHIYELDDQTSRLKTVFECYTDTVISSVSHDEQGHFWIGSNFGLIHYDPVLKSRTLVPTNLFTEINMVLCDQKGKVWIGVDNMLFAYFIKEQKFVLFGESNGAIQNEYLPNARLVNEQGDAYIGGVKGMLRIDGQLLLNTSEMPELQLLDITINGESANHEWYNHPAKISVPWNSNISIRIMSREEDIFRQKIYRYQIEGLNNEYTESYNPELVIRSLLPGSYRIMASCTAKDGSWIPDQQVLELTVLPPWYRTHHHHHH
glycan array binding signal (z-score) [1]: -0.204
glycan array binding signal (z-score) [2]: -0.116
glycan array binding signal (z-score) [3]: 0.209
glycan array binding signal (z-score) [4]: 0.458
glycan array binding signal (z-score) [5]: -0.493
glycan array binding signal (z-score) [6]: -0.139
glycan array binding signal (z-score) (GlcNAc(b1-3)GalNAc): 3.09
glycan array binding signal (z-score) (GlcNAc(b1-3)Man): 0.147
glycan array binding signal (z-score) [7]: -0.262
glycan array binding signal (z-score) [8]: 0.106
glycan array binding signal (z-score) [9]: -0.217
glycan array binding signal (z-score) [10]: -0.204
glycan array binding signal (z-score) (GlcNAc(b1-4)GlcNAc): -0.008
glycan array binding signal (z-score) [11]: -1.4
glycan array binding signal (z-score) [12]: -0.424
glycan array binding signal (z-score) [13]: 0.402
glycan array binding signal (z-score) [14]: -0.517
glycan array binding signal (z-score) [15]: -0.207
glycan array binding signal (z-score) (GlcNAc(b1-6)GalNAc): -1.19
glycan array binding signal (z-score) [16]: -0.266
glycan array binding signal (z-score) (Kdn(a2-3)Gal(b1-3)GalNAc): 0.378
glycan array binding signal (z-score) (Kdn(a2-3)Gal(b1-3)GlcNAc): -0.344
glycan array binding signal (z-score) (Kdn(a2-3)Gal(b1-4)Glc): -1.59
glycan array binding signal (z-score) (Kdn(a2-3)Gal(b1-4)GlcNAc): 2.27
glycan array binding signal (z-score) [17]: 0.137
glycan array binding signal (z-score) (Kdn(a2-6)Gal(b1-4)GlcNAc): 0.875
glycan array binding signal (z-score) [18]: 0.715
glycan array binding signal (z-score) [19]: -0.454
glycan array binding signal (z-score) (Man(a1-2)Man(a1-3)Man): 0.341
glycan array binding signal (z-score) [20]: -0.429
glycan array binding signal (z-score) [21]: -0.496
glycan array binding signal (z-score) [22]: -0.195
glycan array binding signal (z-score) [23]: -1.07
glycan array binding signal (z-score) [24]: 0.078
glycan array binding signal (z-score) [25]: -0.066
glycan array binding signal (z-score) (Man(a1-3)[Man(a1-6)]Man): -0.387
glycan array binding signal (z-score) [26]: 0.16
glycan array binding signal (z-score) [27]: 0.353
glycan array binding signal (z-score) [28]: -0.324
glycan array binding signal (z-score) [29]: 0.075
glycan array binding signal (z-score) [30]: -0.64
glycan array binding signal (z-score) (Man(a1-6)Man): 0.825
glycan array binding signal (z-score) (Man(b1-4)GlcNAc): 0.222
glycan array binding signal (z-score) (MurNAc(b1-4)GlcNAc): -0.144
glycan array binding signal (z-score) (Neu5Ac(a2-3)Gal): 0.021
glycan array binding signal (z-score) [31]: -0.736
glycan array binding signal (z-score) [32]: -0.2
glycan array binding signal (z-score) [33]: 0.006
glycan array binding signal (z-score) [34]: -0.617
glycan array binding signal (z-score) [35]: 0.267
glycan array binding signal (z-score) [36]: -0.37
glycan array binding signal (z-score) [37]: 0.443
glycan array binding signal (z-score) [38]: 1.2
glycan array binding signal (z-score) [39]: -0.661
glycan array binding signal (z-score) [40]: 0.494
glycan array binding signal (z-score) [41]: 0.516
glycan array binding signal (z-score) [42]: -0.376
glycan array binding signal (z-score) [43]: -0.449
glycan array binding signal (z-score) [44]: 0.141
glycan array binding signal (z-score) [45]: 0.523
